Experimental data: the supplement of paper PMC6531468
The list shows a part of the results. Read counts after selection give these values, which scatter widely. Each score is taken over the longer molecules that contain the sequence shown.

Experiments:
Experiment in all cases: 6-mer SELEX enrichment z-score vs GST control; IMP3 is the RNA-binding protein IGF2BP3; higher = more enriched by binding
IMP3 RRM1-2 = conditions: construct: RRM1-2 (1-163); SELEX round: R2
Protocol: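 SELEX-seq with GST-tagged IMP3 RRM1-2 (Met1-Asn163) and an N40 RNA pool, round 2. 6-mer enrichment z-score normalised to GST SELEX. RNA written as DNA (T = U).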

IMP3 KH1-2 = conditions: construct: KH1-2 (164-376); SELEX round: R4
Protocol: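 SELEX-seq with GST-tagged IMP3 KH1-2 (Pro164-Phe376) and an N40 RNA pool, round 4 (stringent 300/600 mM KCl washes). 6-mer z-score of sequence-tag enrichment normalised to the corresponding GST SELEX round; RNA k-mers written as DNA (T for U).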

IMP3 KH3-4 = conditions: construct: KH3-4 (377-579); SELEX round: R4
Protocol: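 SELEX-seq with GST-tagged IMP3 KH3-4 (Pro377-Lys579) and an N40 RNA pool, round 4. 6-mer z-score of sequence-tag enrichment normalised to the corresponding GST SELEX round; RNA k-mers written as DNA (T for U).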

IMP3 full-length = IMP3 full-length (UniProt O00425); conditions: construct: FL IMP3 (1-579); SELEX round: R4
Protocol: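 SELEX-seq with GST-tagged full-length IMP3 and an N40 RNA pool, round 4. Each 6-mer is scored as an enrichment z-score of sequence tags containing it, normalised to the matching GST SELEX round. RNA written as DNA (T = U).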

IMP3 KH1-2, sequence (chain, as listed by the source): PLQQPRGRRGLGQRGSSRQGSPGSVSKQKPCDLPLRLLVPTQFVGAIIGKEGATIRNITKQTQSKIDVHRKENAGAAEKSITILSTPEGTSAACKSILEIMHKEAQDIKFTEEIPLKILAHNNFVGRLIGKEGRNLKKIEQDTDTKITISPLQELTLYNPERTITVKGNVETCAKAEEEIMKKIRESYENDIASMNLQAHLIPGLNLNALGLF
IMP3 KH3-4, sequence (chain, as listed by the source): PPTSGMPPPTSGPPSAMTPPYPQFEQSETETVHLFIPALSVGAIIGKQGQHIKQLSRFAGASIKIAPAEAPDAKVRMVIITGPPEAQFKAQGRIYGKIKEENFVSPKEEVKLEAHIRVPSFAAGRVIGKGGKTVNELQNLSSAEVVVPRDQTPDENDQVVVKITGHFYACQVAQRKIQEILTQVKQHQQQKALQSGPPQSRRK
UniProt O00425, sequence (O00425 whole entry): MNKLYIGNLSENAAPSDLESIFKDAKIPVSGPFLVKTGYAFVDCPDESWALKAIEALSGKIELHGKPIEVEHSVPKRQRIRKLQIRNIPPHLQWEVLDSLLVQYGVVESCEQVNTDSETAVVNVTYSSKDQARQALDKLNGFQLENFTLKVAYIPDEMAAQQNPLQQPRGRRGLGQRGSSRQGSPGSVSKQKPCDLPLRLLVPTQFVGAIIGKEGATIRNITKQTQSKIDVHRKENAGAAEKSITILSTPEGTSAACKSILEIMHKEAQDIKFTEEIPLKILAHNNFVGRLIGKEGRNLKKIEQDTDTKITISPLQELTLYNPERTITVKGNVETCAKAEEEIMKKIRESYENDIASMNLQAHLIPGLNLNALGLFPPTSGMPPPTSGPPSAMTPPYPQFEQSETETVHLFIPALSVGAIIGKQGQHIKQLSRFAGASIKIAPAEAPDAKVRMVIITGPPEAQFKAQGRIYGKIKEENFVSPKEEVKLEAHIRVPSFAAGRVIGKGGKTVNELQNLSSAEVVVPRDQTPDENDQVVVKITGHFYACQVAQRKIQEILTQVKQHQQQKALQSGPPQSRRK
IMP3 RRM1-2, sequence (chain, as listed by the source): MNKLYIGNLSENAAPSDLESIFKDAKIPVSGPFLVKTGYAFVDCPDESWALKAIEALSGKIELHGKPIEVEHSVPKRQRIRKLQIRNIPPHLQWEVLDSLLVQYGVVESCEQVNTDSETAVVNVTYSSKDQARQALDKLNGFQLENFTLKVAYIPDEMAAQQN

Sequence	6-mer SELEX enrichment z-score (IMP3 RRM1-2)	6-mer SELEX enrichment z-score (IMP3 KH1-2)	6-mer SELEX enrichment z-score (IMP3 KH3-4)	6-mer SELEX enrichment z-score (IMP3 full-length)
ACGCCT	-0.371	-0.685	-0.927	–
AACGGA	-1.55	-0.547	–	–
TAGCCA	-0.196	–	-0.36	-0.31
GGCATC	0.963	0.918	0.592	–
CCTCCA	-0.116	-0.005	-0.841	–
CTGGGC	0.234	-0.473	-0.481	–
GATTTG	-0.101	0.304	0.72	–
ACTGAG	-0.674	–	-1.04	-0.976
GGGGGG	0.435	2.41	1.55	–
CTCGCC	0.021	-0.369	-0.779	–
GGCACA	1.06	2.7	–	–
CGTTTC	0.477	–	-0.453	-0.066
CCAGAG	-0.57	-1.45	-1.53	–
AGCCGA	-1.09	-1.42	-1.44	–
GGCCGC	-0.002	0.808	0.375	–
AGCAGG	0.647	0.638	–	–
AGCGTG	-0.102	-3.74	-3.49	–
TGATGT	-0.083	0.371	0.691	–
AAGAGA	-1.59	–	1.03	-0.86
CGACCG	-1.1	-1.38	-1.85	–
GTTGTA	0.227	-0.156	–	–
TCGTCG	0.408	–	-0.111	0.361
CGAAGT	-0.564	-1.02	-0.926	–
CGAAAG	-1.65	–	-1.59	-1.68
CACATA	3.2	–	3	3.22
TGAACC	-1.14	–	-1.23	-1.29

Sequence	6-mer SELEX enrichment z-score (IMP3 RRM1-2)	6-mer SELEX enrichment z-score (IMP3 KH1-2)	6-mer SELEX enrichment z-score (IMP3 KH3-4)	6-mer SELEX enrichment z-score (IMP3 full-length)
CAGGGC	0.551	-0.01	0.04	–
TGCCAT	0.21	–	0.138	0.31
GCTAGG	0.281	0.022	0.067	–
GCGCGC	0.349	–	-0.109	0.613
AGTATC	0.137	–	-0.43	-0.174
TCCTCT	0.105	0.487	0.153	–
AGCATC	0.626	–	-0.335	1.36
AAAGGC	–	-0.346	0.293	-0.043
GAGCTC	0.132	-0.502	-0.435	–
GCCAAA	–	–	-1.08	-1.2
GTACAG	–	0.204	0.135	0.492
GCGTTC	–	-0.696	-0.602	0.12
AATCAT	–	1.37	1.5	2.66
TTTTTC	–	1.21	1.25	0.458
CATAGC	–	0.235	–	–
TCCAGA	–	–	-0.343	-0.328
ACACAT	–	–	2.75	–
AACACA	–	–	2.57	–
GTAGTT	–	-0.644	-0.529	-0.487
GTTGGT	–	-0.004	0.1	0.101
CACACA	–	–	1.92	–
CAAACA	–	–	-0.148	2.07
CATACA	–	–	2.22	–
AAGTAT	–	-0.026	0.463	-0.367
TCAGCT	–	0.081	-0.036	0.562
TAACTC	0.006	-0.085	-0.261	–
